The campaign covered roughly 310,000 compounds. About 2,200 (0.71%) showed an effect of 50% or more. Effects have a minus sign here. Some of the results follow.

The assay deals with human ether-à-go-go-related gene (hERG) potassium channel (human, UniProt Q12809). Briefly: primary screen, population patch clamp on CHO cells stably expressing hERG.
human ether-à-go-go-related gene (hERG) potassium channel, sequence (Q12809 whole entry, looked up): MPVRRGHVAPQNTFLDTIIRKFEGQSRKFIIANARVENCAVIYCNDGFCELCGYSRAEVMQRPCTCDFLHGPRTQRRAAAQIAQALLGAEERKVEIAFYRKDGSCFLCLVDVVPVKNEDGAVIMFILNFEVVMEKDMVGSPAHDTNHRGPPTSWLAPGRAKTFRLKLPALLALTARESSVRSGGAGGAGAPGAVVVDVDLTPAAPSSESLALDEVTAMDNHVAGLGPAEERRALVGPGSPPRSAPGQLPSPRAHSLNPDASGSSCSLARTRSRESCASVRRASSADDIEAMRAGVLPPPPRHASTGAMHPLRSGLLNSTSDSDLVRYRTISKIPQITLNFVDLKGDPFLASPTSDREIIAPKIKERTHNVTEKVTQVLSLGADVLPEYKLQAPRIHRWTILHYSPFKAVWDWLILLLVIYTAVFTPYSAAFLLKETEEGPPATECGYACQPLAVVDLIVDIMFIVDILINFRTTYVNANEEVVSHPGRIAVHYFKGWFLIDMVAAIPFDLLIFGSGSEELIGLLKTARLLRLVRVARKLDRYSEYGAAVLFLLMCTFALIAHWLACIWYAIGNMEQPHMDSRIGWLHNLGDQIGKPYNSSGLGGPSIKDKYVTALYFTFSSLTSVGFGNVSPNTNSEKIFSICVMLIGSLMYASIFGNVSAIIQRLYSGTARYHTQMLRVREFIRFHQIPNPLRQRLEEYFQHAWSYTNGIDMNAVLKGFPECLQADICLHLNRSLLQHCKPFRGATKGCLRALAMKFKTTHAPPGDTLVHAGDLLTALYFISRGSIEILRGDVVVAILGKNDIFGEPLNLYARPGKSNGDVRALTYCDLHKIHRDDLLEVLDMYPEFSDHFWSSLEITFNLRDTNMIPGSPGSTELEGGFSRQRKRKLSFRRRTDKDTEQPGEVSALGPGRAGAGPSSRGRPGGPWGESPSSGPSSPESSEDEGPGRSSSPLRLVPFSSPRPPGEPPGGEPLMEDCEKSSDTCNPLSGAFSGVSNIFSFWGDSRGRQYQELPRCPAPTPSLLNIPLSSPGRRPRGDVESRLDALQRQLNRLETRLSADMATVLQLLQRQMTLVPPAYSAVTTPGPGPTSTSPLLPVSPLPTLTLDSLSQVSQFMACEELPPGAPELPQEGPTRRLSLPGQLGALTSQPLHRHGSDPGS
`CC/C(=C/c1sc2ccc(C)cc2[n+]1CCCS(=O)(=O)[O-])SC`: the “hERG current change (%, negative = inhibition) at 1uM” value was 7.32%.
As for `N#C/C(=C\c1cccc(Cl)c1)c1n[nH]c(Cn2cncn2)n1`, the “hERG current change (%, negative = inhibition) at 1uM” value was 9.52%.
Consider `CC(C)(C)C(=O)Nc1cc(C(F)(F)F)ccc1N1CCOCC1`, for which the “hERG current change (%, negative = inhibition) at 1uM” value was 15.1%.
Under `O=C(Nc1ccccc1O)c1ccc(Cl)cc1` stands 7.12%.
Next, `O=C(CCCSc1nc2ccccc2c(=O)[nH]1)c1ccccc1`: -0.382%; `CCOCCCNC(=O)C(c1ccc(OC)cc1)N(Cc1cccs1)C(=O)c1ccccc1O` (stereo not drawn): 8.1%.
Turning to `Cc1ccc2nc(SCC(=O)O)nc(C)c2c1`, the “hERG current change (%, negative = inhibition) at 1uM” value is -12.9%.
`CN=C(Nc1cccnc1)c1ccccc1`: the “hERG current change (%, negative = inhibition) at 1uM” value turned out to be 11.9%.
Next, `CC(C)Cn1c(CN(Cc2ccccc2)Cc2ccccc2)nc2c1c(=O)n(C)c(=O)n2C`: -7.94%.
`CC(/C=N/NC(=S)Nc1cccc(S(=O)(=O)N(C)C)c1)c1ccccc1` (stereo not drawn): the “hERG current change (%, negative = inhibition) at 1uM” value is on record as 12.3%.
On to `Cc1cc(C)c2nc(-c3ccccn3)cc(C(=O)NCc3ccc(S(N)(=O)=O)cc3)c2c1`, for which the “hERG current change (%, negative = inhibition) at 1uM” value is recorded as 4.65%.
Under `OCC[C@H]1C[C@@H](O)[C@H](O)[C@]2(Cc3ccccc3CO2)O1` stands 12.6%.
With `CCOc1cc(NC(=S)NCCc2ccccc2)c(OCC)cc1NC(C)=O`, the “hERG current change (%, negative = inhibition) at 1uM” value was determined as 3.76%.
Under `CCOC(=O)CC[NH3+].[Cl-]` stands 8.45%; under `CCC(c1nnc(SCC(=O)Nc2cccc(S(N)(=O)=O)c2)n1Cc1ccccc1)N(C)C` (stereo not drawn), 8%.
Under `COc1c(Br)cc2c(C)c(C(=O)N3CCOCC3)oc2c1Br` stands 7.21%.
Under `CC(Sc1nc(N)cc(N)n1)C(=O)NCC1CCCO1` (stereo not drawn) stands 9.79%; under `CCc1ccccc1-n1c(SCC(=O)Nc2ccc3c(c2)OCCO3)nc2[nH]ncc2c1=O`, 8.23%; under `O=C(O)CC/C(=N/Nc1ccc([N+](=O)[O-])cc1)C(=O)O`, 11.1%.
As to `O=C(CCCc1ccccc1)Nc1ccnn1C1CCN(Cc2ccc(CO)o2)CC1`, the “hERG current change (%, negative = inhibition) at 1uM” value is recorded as -2.31%.
`Cc1cc(Br)ccc1NC(=O)CN(C)C(=O)COc1cccc2c1OC(C)(C)C2`: the “hERG current change (%, negative = inhibition) at 1uM” value was 6.94%.
Under `O=C(NCc1ccco1)C1CCCN(S(=O)(=O)c2cnc[nH]2)C1` (stereo not drawn) stands -0.476%.
Next, `CC1(C(=O)Nc2nnc(C(C)(C)C)s2)Cc2ccccc2C(=O)O1` (stereo not drawn): 2.79%; `COc1ccc(-c2cc(C(F)(F)F)nc(NC3CCCC3)n2)cc1OC`: -3.53%; `COc1ccc(C(=O)n2cnc3ccccc32)cc1`: 11.1%.
`Cc1c(NC(=O)c2c(F)cccc2F)c(=O)n(-c2ccccc2)n1C`: the “hERG current change (%, negative = inhibition) at 1uM” value is on record as -0.581%.
Next, `O=C1NC(=S)S/C1=C\c1coc2ccc(O)cc2c1=O`: 15.3%; `CCOC(=O)C1=C(C)N(CCCCCC(=O)O)C(=O)NC1c1ccc(Br)cc1` (stereo not drawn): 12.4%.
For the molecule `COc1ccc(S(=O)(=O)Nc2cc3c4c(oc3c3ccccc23)CCCC4=O)cc1`, the “hERG current change (%, negative = inhibition) at 1uM” value was found to be 17.4%.
For `Nc1ccc2nc(NC(=O)C3CCCCC3)sc2c1`, the “hERG current change (%, negative = inhibition) at 1uM” value is recorded as 2.24%.
As to `O=C(CNCC1(N2CCOCC2)CCCCC1)Nc1ccc(Cl)cc1`, the “hERG current change (%, negative = inhibition) at 1uM” value is -36%.
Next, `O=C(NCc1ccccn1)c1nc(-c2ccc(C(F)(F)F)cc2)no1`: -1.11%; `COc1ccc2[nH]c(=O)c(CN(C(=O)c3ccco3)C3CCCCC3)cc2c1`: 9.93%; `CCCCc1ccc(NC(=O)CC(C)C)cc1`: 9.98%.
With `Cc1cc2c(cc1C)CSC(c1ccccc1O)SC2`, the “hERG current change (%, negative = inhibition) at 1uM” value is 3.04%.
On to `CCOc1cc(C)c(C(C)C)cc1S(=O)(=O)n1ccc(C)n1`, for which the “hERG current change (%, negative = inhibition) at 1uM” value was -9.63%.
Take `COc1ccc(C(=O)/C=C2/Sc3cc4c(cc3N2C)OCO4)cc1`: the “hERG current change (%, negative = inhibition) at 1uM” value was determined as 15.9%.
`Cl.OC1(c2ccc3ccccc3c2)CCN(Cc2ccccc2)C1` (stereo not drawn): the “hERG current change (%, negative = inhibition) at 1uM” value is -15.7%.
Under `COc1cccc(/C=C/C(=O)OCC(=O)N2CCN(c3ccccc3)CC2)c1` stands 3.99%.
Next, `O=C(COC(=O)C12CC3CC(CC(C3)C1)C2)N1CCN(S(=O)(=O)c2ccccc2)CC1`: 11.8%; `Cc1cccc(NC(=O)c2oc3ccc(S(=O)(=O)N4CCOCC4)cc3c2C)c1C`: 3.13%.
Under `Br.N=c1ccn(CC(=O)c2ccc(-c3ccccc3)cc2)cc1` stands -1.45%; under `COc1ccc(C(=O)N/N=C/c2ccc(OC)c(CSc3ccccn3)c2)cc1`, 3.5%; under `COc1ccc(-c2cc(C(=O)Nc3cc(C)nn3-c3ccccc3)no2)cc1OC`, 8.63%.
In the case of `Cc1cnc(C(=O)OCC(=O)NC(=O)NC(C)C)cn1`, the “hERG current change (%, negative = inhibition) at 1uM” value amounted to 12%.
Take `O=C(N/N=C/c1cc(Cl)ccc1O)c1ccc(Br)cc1`: the “hERG current change (%, negative = inhibition) at 1uM” value stood at 18.2%.
Under `COc1ccc(C(=O)NNC(=O)CN2CCN(c3nc(-c4ccccc4)cs3)CC2)cc1` stands 4.21%; under `COc1ccccc1[As](=O)(O)CC(O)COc1ccc(Cl)cc1Cl` (stereo not drawn), -1.61%; under `CN(C)c1ccc(N=C/C=C2\N(C)c3ccccc3C2(C)C)cc1`, -84.7%.
Next, `CCC1=Nc2cc(C(=O)NCCN3CCOCC3)ccc2Sc2ccc(Br)cc21`: 13.6%.
Under `c1ccc(-n2c(-c3cccs3)nc3nc4ccccc4nc32)cc1` stands 6.03%; under `CN(CC(=O)NCc1ccc(Cl)cc1)S(=O)(=O)c1cccs1`, 8.22%; under `COc1cc(CC(=O)Nc2ccccc2N2CCCCC2)cc(OC)c1OC`, 10.6%.
Turning to `O=C(O)C(=O)O.O=C(c1cccc(Cl)c1)N1CCN(C2CCCCC2)CC1`, the “hERG current change (%, negative = inhibition) at 1uM” value is -14.6%.
Under `COc1ccc2[nH]c3c(=O)n4c(nc3c2c1)SCCC4` stands 3.3%; under `Cc1cc(C)cc(NC(=O)CCc2ccc(C)o2)c1`, -5.53%; under `CN1C[C@H](C(=O)N[C@]2(C)O[C@@]3(O)[C@@H]4CCCN4C(=O)[C@H](Cc4ccccc4)N3C2=O)CC2c3cccc4[nH]cc(c34)C[C@H]21.O=C(O)C(O)C(O)C(=O)O` (stereo partly drawn), 12.3%.

(Values after PMC4336329 (PLoS ONE, 2015).)
